Results from paper PMC4336329 (PLoS ONE, 2015).
Screen size: about 310,000 compounds; about 2,200 (0.71%) showed an effect of 50% or more. Effects have a minus sign here. Some of the results follow.

Target: human ether-à-go-go-related gene (hERG) potassium channel (human, UniProt Q12809)
Assay: primary screen, population patch clamp on CHO cells stably expressing hERG

human ether-à-go-go-related gene (hERG) potassium channel, sequence (Q12809 whole entry, looked up): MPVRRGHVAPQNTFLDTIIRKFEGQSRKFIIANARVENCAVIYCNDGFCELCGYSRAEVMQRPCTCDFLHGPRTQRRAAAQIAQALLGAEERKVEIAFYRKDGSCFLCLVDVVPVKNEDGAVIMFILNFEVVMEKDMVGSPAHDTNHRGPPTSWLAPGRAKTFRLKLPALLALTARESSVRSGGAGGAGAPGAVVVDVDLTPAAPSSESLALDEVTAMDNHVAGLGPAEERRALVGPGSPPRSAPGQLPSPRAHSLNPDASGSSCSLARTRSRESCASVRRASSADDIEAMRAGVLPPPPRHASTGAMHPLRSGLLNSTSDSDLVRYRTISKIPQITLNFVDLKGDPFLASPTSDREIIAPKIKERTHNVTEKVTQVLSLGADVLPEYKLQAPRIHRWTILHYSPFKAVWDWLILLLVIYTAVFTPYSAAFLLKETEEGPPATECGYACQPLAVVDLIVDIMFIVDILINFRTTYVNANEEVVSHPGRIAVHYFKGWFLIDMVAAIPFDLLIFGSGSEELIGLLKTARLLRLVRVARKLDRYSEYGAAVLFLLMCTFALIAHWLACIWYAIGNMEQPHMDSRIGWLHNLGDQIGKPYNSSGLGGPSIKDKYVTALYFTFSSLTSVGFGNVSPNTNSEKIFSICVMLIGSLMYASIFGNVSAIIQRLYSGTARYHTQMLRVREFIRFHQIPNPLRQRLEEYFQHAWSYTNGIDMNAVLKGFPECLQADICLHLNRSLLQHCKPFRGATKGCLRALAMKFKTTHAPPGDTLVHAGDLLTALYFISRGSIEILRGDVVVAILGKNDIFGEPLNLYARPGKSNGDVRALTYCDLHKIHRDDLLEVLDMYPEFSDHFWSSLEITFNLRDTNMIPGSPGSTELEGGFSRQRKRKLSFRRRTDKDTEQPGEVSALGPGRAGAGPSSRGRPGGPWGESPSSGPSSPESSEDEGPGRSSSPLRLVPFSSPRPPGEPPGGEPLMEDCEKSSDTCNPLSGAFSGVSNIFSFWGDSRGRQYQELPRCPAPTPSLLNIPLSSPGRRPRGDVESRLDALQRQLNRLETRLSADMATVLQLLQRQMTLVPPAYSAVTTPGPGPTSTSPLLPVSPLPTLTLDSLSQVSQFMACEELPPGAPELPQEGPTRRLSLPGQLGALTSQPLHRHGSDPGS

SMILES	hERG current change (%, negative = inhibition) at 1uM
CSc1ccc(/C=C/C(=O)OCC(=O)NC(C)C)cc1	19.3%
CC(=O)c1ccc(N2CCN(C(=O)c3cc(-c4ccncc4)nc4ccc(Br)cc34)CC2)cc1	5.44%
Cc1ccccc1NC(=O)/C(C#N)=C/c1ccsc1	1.22%
CCC1(CC)C(=O)Nc2ccccc21	17.8%
Cc1ccccc1N1CCN(CC(=O)Nc2ccccc2C(=O)NC2CC2)CC1	-35.4%
Cc1ccc(NC(=O)c2ccccc2Br)cc1S(=O)(=O)N(C)C	9.95%
COc1ccccc1NC(=O)c1ccc(S(=O)(=O)N2CCCC(C)C2)cc1 (stereo not shown)	11.1%
NC(=O)c1ccsc1NC(=O)COc1ccccc1	-0.384%
CC(C)C(NS(=O)(=O)c1cccc(C(F)(F)F)c1)C(=O)NCc1cccs1 (stereo not shown)	4.64%
CC1CCc2nc(/C(C#N)=C/c3cccnc3)sc2C1 (stereo not shown)	13.3%
CC(C)CNC(=O)c1cccc(NC(=O)C(C)Oc2ccccc2)c1 (stereo not shown)	5.08%
C[C@@H]1CC[C@]2(O[C@@H](CCO)C[C@H](O)[C@H]2O)O1	13.6%
CC1CC(C)(C)N2C(=O)C(=C(C#N)C#N)c3cccc1c32 (stereo not shown)	15.5%
CC1=C(C)C(O)N(Cc2ccccc2)C1=O (stereo not shown)	15.8%
CC(=O)Nc1ccc(O)c(-c2nc3ccccc3s2)c1	1.89%
CCCC(=O)OCC(=O)Nc1ccccc1C#N	16%
Cc1nn(CC(C)C(=O)N2CCN(S(=O)(=O)c3ccc(Cl)cc3)CC2)c(C)c1C (stereo not shown)	16.4%
O=C1N/C(=C/c2ccc(N3CCCC3)cc2)C(=O)N1c1ccccc1	2.81%
CCOC(=O)c1ccc2c(c1)nc(SCC(=O)N1CCOCC1)n2CC	16.9%
CCOC(=O)c1ccccc1NC(=O)C1CC(=O)N(C(C)(C)C)C1 (stereo not shown)	12.2%
O=C(N/N=C/c1ccc(N2CCOCC2)o1)c1cccc(C(F)(F)F)c1	-14.3%
COc1ccc2[nH]c(C(=O)O)c(NS(=O)(=O)c3ccc(C)c(C)c3)c2c1	13.9%
CCc1nc2ccccc2c(C(=O)OC2CCCCC2=O)c1C (stereo not shown)	10%

SMILES	hERG current change (%, negative = inhibition) at 1uM
Cc1ccc(Cn2ccc(NC(=O)c3nc4ncccn4n3)n2)cc1	4.73%
COc1ccc(-c2cc(C(F)(F)F)c3c(n2)sc2c(O)cc(=O)[nH]c23)c(OC)c1	11.4%
O=S(=O)(c1cnc[nH]1)N1CCN(C(c2ccc(F)cc2)c2ccc(F)cc2)CC1	7.47%
Cc1oc(/C=N/NC(=O)CC2(C)OCCO2)cc1Br	13.8%
COc1cccc(OC)c1C(=O)Nc1nnc(C(C)C)s1	9.18%
CC(C)Cn1c(-c2ccccc2)nc2ccccc2c1=O	4.25%
COc1cccc(C(=O)Nc2cc(NC(=O)c3ccco3)ccc2OC)c1	8.83%
CCOC(=O)N1CCC(NC(=O)c2ccc(CS(=O)(=O)c3ccccc3C)o2)CC1	-1.89%
Nn1c(SCC(=O)N2CCOCC2)nnc1-c1cccnc1	24.2%
COc1ccc(C(NC(=O)CNC(C)=O)C(=O)Nc2ccc3c(c2)OCCO3)cc1 (stereo not shown)	6.92%
O=C(NCC1CCN(Cc2cccc(Cl)c2)CC1)Nc1ccc(Cl)cc1	-23.1%
O=C(COC(=O)COc1ccc(Br)cc1)Nc1ccc2c(c1)OCCO2	11.8%
O=C1CSC(=S)N1c1ccc(F)c(Cl)c1	11.1%
CC(C)N1CCC(=NNc2ccc([N+](=O)[O-])cc2S(=O)(=O)N2CCOCC2)CC1	-7.92%
O=C(N/N=C/c1ccco1)c1cccc(NC(=O)c2ccccc2Cl)c1	9.31%
CSc1ccc(CN(C)C(C)C(=O)Nc2ccc(F)c(F)c2F)cc1 (stereo not shown)	13.4%
O=C(Nc1ccon1)Nc1ccc(Cl)cc1Cl	12.4%
O=C(Nc1cccc(Cl)c1N1CCCC1)c1ccc([N+](=O)[O-])o1	9.79%
O=C(O)CCSc1nc(C(F)(F)F)cc(=O)n1-c1ccccc1	14.4%
c1cc2c(cc1-n1cnnn1)OCO2	4.05%
CCCCNC(=S)N(C)/N=C/c1ccccc1C(=O)O	14.3%
O=C(Oc1ccccc1)N1CCN(C(=O)c2ccco2)CC1	11.1%
CC1CCC(NS(=O)(=O)c2ccc3c(c2)CC(=O)N3)CC1 (stereo not shown)	17.4%

SMILES	hERG current change (%, negative = inhibition) at 1uM
CCOC(=O)c1ccc(NC(=S)Nc2cc(C)cc(C)n2)cc1	14.4%
N#Cc1c(SCC(=O)N2CCOCC2)nsc1SCC(=O)N1CCOCC1	10.5%
Cc1[nH+]csc1CCOC(=O)c1ccc([N+](=O)[O-])cc1.[Cl-]	-6.66%
O=C(Nc1ccc(C(=O)NN2C(=O)c3ccccc3C2=O)cc1)c1ccccc1	2.31%
CCN1CCN(C(=S)c2ccc(OC)cc2)CC1	-31%
CC(=O)c1ccc(OCCN2CCOCC2)cc1.O=C(O)C(=O)O	2.38%
CSc1nc2ccc(NC(=O)c3ccc(Cl)s3)cc2s1	7.76%
CCO[C@@H]1OC(C(=O)N2CCOCC2)=C[C@H](C(C)(C)C)[C@H]1CCCO	24.1%
Cc1ccc[n+](-c2nc3ccccc3nc2[N-]S(=O)(=O)c2ccccc2)c1	13.7%
CCOCC(=O)Nc1cc(S(=O)(=O)N2CCOCC2)ccc1N1CCCCC1	38.4%
CCC(C)N(C(=O)CSc1nnc(COc2ccccc2F)n1N)C1CCS(=O)(=O)C1 (stereo not shown)	9.27%
CCn1nc(NS(=O)(=O)c2ccc(F)cc2)c2cc3cccc(C)c3nc21	7.99%
Cc1cc(=O)oc2cc(OCC(=O)OCC(=O)NCc3ccc4c(c3)OCO4)ccc12	10.1%
Cc1cccc(NC(N)=S)c1	-3.13%
COc1ccccc1-c1nnc(NC(=O)c2cccc(N3C(=O)CCC3=O)c2)o1	15%
COC(=O)C(Cc1ccccc1)NC(=O)CCNC(=O)c1ccco1 (stereo not shown)	17.7%
CCCn1c(SCC(=O)NCCc2ccccc2)nnc1-c1cccnc1	7.55%
CC1CCCN(C(=O)C2CCN(CC(C)c3ccccc3)CC2)C1.O=C(O)C(=O)O (stereo not shown)	18.5%
Brc1ccccc1-c1nnc(CSc2nncn2-c2ccccc2)o1	8.67%
CCOC(=O)c1c(C)nc2c3ccccc3ccn12	2.99%
Cc1cc(C)nc(N2CCCC(C(=O)Nc3ccc4nc(C)c(C)nc4c3)C2)n1 (stereo not shown)	16.1%
O=c1[nH]c(=O)n(Cc2ccccc2Cl)c(O)c1C=Nc1ccc(F)cc1	5.87%
CC(=O)N1N=C(c2ccccc2)CC1c1ccccc1 (stereo not shown)	5.69%

SMILES	hERG current change (%, negative = inhibition) at 1uM
Cc1cc(Br)cc2cn[nH]c12	12.5%
COC(=O)C1=C(O)/C(=C\c2sccc2C)N=C1C	12.4%
CCc1nnc(N/N=C/c2c(C)[nH]c3ccccc23)n1N.Cl	28.8%
COC(=O)c1ccc(CSCc2ccc(C#N)cc2)cc1	16.3%
O=C(Cc1ccccc1[N+](=O)[O-])N1CCN(c2ccc(F)cc2)CC1	11%
C=CCc1cc(/C=C2/NC(=S)NC2=O)cc(OC)c1O	10.1%
COC(=O)/C=C1/S/C(=N/NC(=O)c2ccc(OC)cc2)NC1=O	14.6%
O=C(CCCCCNC(=O)N1CCn2c1nc1ccccc12)N[C@H](C(=O)O)c1ccccc1	18%
CCOC(=O)c1cnc(-n2nc(C)cc2C)nc1N1CCOCC1	1.69%
CCCCn1c(SCC(=O)N2CCOCC2)nnc1-c1ccoc1C	5.74%
COC(=O)c1ccccc1N(C)C(=O)C12CCC(C)(C(=O)O1)C2(C)C (stereo not shown)	16.6%
O=C(O)Cn1nc(-c2ccc(Cl)cc2)ccc1=O	10.5%
Cc1ccc(NC(=O)N2CCC(c3nc4c(nnn4Cc4cccc(Cl)c4)c(=O)[nH]3)CC2)cc1	1.19%
CCS(=O)(=O)N1CCC(C(=O)NCCc2ccc(C)cc2)CC1	15.3%
COc1ccc(-c2cc3ncnc(Cl)c3s2)cc1	18%
CCC(Oc1nc2ccccc2nc1-c1ccccc1NC(C)=O)C(=O)c1ccccc1 (stereo not shown)	-2.71%
S=C1NCN(Cc2ccco2)CN1c1ccccc1	14.5%
Cc1ccc(C(=O)N/C(=C/c2ccc(-c3cccc([N+](=O)[O-])c3)o2)C(=O)NC(C)C)cc1	10.1%
COc1ccccc1N1CCN(C(=O)CCS(=O)(=O)c2ccc3c(c2)NC(=O)C(C)S3)CC1 (stereo not shown)	14.3%
C=C(C)c1cccc(C(C)(C)NC(=O)N2CCC(C)CC2)c1	12.6%
COc1ccc(-n2cc(CN(C)C(C)c3ccncn3)c(-c3cccc(F)c3)n2)cc1 (stereo not shown)	-6.58%
CN1C(=O)/C(=C/c2cccc(Cl)c2)Sc2ccc(C(=O)N3CCCC3)cc21	0.412%
